Measured values taken from the supplement of paper PMC4967469.

How the values were obtained:
Assay in all cases: Viability of human cancer cell lines after 72 h of drug (GDSC screen)
ABT-263 = compound: CC1(C)CCC(c2ccc(Cl)cc2)=C(CN2CCN(c3ccc(C(=O)NS(=O)(=O)c4ccc(N[C@H](CCN5CCOCC5)CSc5ccccc5)c(S(=O)(=O)C(F)(F)F)c4)cc3)CC2)C1 [ABT-263]; conditions: top dose 2 µM; top dose inferred
Protocol: (§1)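 Human cancer cell lines in 384-well plates, medium with 10% serum, drug for 72 h over a 256-fold dose range (nine 2-fold or five 4-fold steps up to the top dose). Adherent lines were fixed and stained with the nucleic acid dye Syto60, suspension lines read with resazurin; signal relative to control wells, capped at 0 and 100%. One two-parameter sigmoid per drug and line, fitted in a mixed model over all curves with the slope shared within a line.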

GW843682X = compound: COc1cc2ncn(-c3cc(OCc4ccccc4C(F)(F)F)c(C(N)=O)s3)c2cc1OC [GW843682X]; conditions: top dose 0.256 µM
Protocol: as §1

PIK-93 = compound: CC(=O)Nc1nc(C)c(-c2ccc(Cl)c(S(=O)(=O)NCCO)c2)s1 [PIK-93]; conditions: top dose 20 µM
Protocol: as §1

GW 441756 = compound: Cn1cc(/C=C2\C(=O)Nc3cccnc32)c2ccccc21 [GW 441756]; conditions: top dose 2 µM; top dose inferred
Protocol: as §1

piperlongumine = compound: COc1cc(/C=C/C(=O)N2CCC=CC2=O)cc(OC)c1OC [piperlongumine]; conditions: top dose 10 µM
Protocol: as §1

Salubrinal = compound: O=C(/C=C/c1ccccc1)NC(NC(=S)Nc1cccc2cccnc12)C(Cl)(Cl)Cl [Salubrinal]; conditions: top dose 16 µM; top dose inferred
Protocol: as §1

| Cell Line | AUC (ABT-263) | IC50 (ABT-263) [nM] | AUC (GW843682X) | IC50 (GW843682X) [nM] | AUC (PIK-93) | IC50 (PIK-93) [nM] | AUC (GW 441756) | IC50 (GW 441756) [nM] | AUC (piperlongumine) | IC50 (piperlongumine) [nM] | AUC (Salubrinal) | IC50 (Salubrinal) [nM] |
| --- | --- | --- | --- | --- | --- | --- | --- | --- | --- | --- | --- | --- |
| HUTU-80 (digestive system, adherent) | 0.991 | > 2000 | 0.574 | 24.6 | 0.81 | 8410 | 0.947 | > 2000 | 0.838 | 5150 | 0.86 | 9860 |
| IMR-5 (neuroblastoma, adherent) | 0.9 | 1840 | 0.54 | 20.2 | 0.821 | 9270 | 0.991 | > 2000 | 0.811 | 4290 | 0.866 | 10700 |
| IST-MEL1 (melanoma, adherent) | 0.959 | > 2000 | 0.615 | 35.3 | 0.804 | 12300 | 0.981 | > 2000 | 0.684 | 2270 | 0.936 | > 16000 |
| IST-SL1 (small cell lung carcinoma, semi-adherent) | 0.712 | 505 | 0.832 | 170 | 0.735 | 5970 | 0.974 | > 2000 | 0.797 | 4860 | 0.89 | > 16000 |
| JJN-3 (haematopoietic neoplasm, suspension) | 0.819 | 884 | 0.448 | 11.9 | 0.589 | 2090 | 0.822 | 905 | 0.679 | 1780 | 0.889 | 12500 |
| JM1 (B-cell lymphoma, suspension) | 0.635 | 278 | 0.485 | 14.7 | 0.647 | 2990 | 0.173 | 15.7 | 0.622 | 1290 | 0.944 | > 16000 |
| JVM-2 (lymphoid neoplasm, suspension) | 0.887 | > 2000 | 0.967 | > 256 | 0.841 | 18800 | 0.982 | > 2000 | 0.648 | 1770 | 0.979 | > 16000 |
| JVM-3 (lymphoid neoplasm, suspension) | 0.562 | 185 | 0.956 | > 256 | 0.814 | 11100 | 0.977 | > 2000 | 0.711 | 2500 | 0.986 | > 16000 |
| JiyoyeP-2003 (Burkitt lymphoma, suspension) | 0.978 | > 2000 | 0.831 | 135 | 0.69 | 3960 | 0.989 | > 2000 | 0.838 | 5600 | 0.905 | > 16000 |
| K5 (thyroid, adherent) | 0.973 | > 2000 | 0.735 |  | 0.803 | 9410 | 0.984 | > 2000 | 0.704 | 2280 | 0.887 | > 16000 |
| KARPAS-45 (lymphoblastic leukaemia, suspension) | 0.435 | 85.6 | 0.293 | 4.69 | 0.234 | 251 | 0.986 | > 2000 | 0.939 | > 10000 | 0.917 | > 16000 |
| KARPAS-299 (anaplastic large cell lymphoma, suspension) | 0.985 | > 2000 | 0.779 | 87 | 0.911 | > 20000 | 0.966 | > 2000 | 0.804 | 4050 | 0.967 | > 16000 |
| KARPAS-422 (B-cell lymphoma, suspension) | 0.765 | 723 | 0.835 | 166 | 0.687 | 4140 | 0.959 | > 2000 | 0.808 | 5070 | 0.931 | > 16000 |
| KCL-22 (chronic myeloid leukaemia, suspension) | 0.921 | > 2000 | 0.544 | 20.7 | 0.757 | 5910 | 0.991 | > 2000 | 0.818 | 4500 | 0.913 | > 16000 |
| KE-37 (lymphoblastic leukaemia, suspension) | 0.302 | 40.6 | 0.311 | 5.48 | 0.122 | 127 | 0.994 | > 2000 | 0.849 | 4980 | 0.915 | 13600 |
| KELLY (neuroblastoma, adherent) | 0.936 | > 2000 | 0.715 | 60.6 | 0.795 | 8330 | 0.989 | > 2000 | 0.767 | 3380 | 0.896 | > 16000 |
| KGN (ovary, adherent) | 0.981 | > 2000 | 0.647 | 44.7 | 0.731 | 6640 | 0.97 | > 2000 | 0.682 | 2270 | 0.929 | > 16000 |
| KINGS-1 (glioma, adherent) | 0.878 | > 2000 | 0.747 | 110 | 0.705 | 5950 | 0.875 | > 2000 | 0.799 | 7060 | 0.954 | > 16000 |
| KM12 (large intestine, adherent) | 0.949 | > 2000 | 0.44 | 10.8 | 0.915 | > 20000 | 0.887 | > 2000 | 0.907 | > 10000 | 0.888 | > 16000 |
| KM-H2 (Hodgkin lymphoma, suspension) | 0.955 | > 2000 | 0.474 | 13.8 | 0.884 | 16000 | 0.993 | > 2000 | 0.989 | > 10000 | 0.909 | > 16000 |
| KMOE-2 (acute myeloid leukaemia, suspension) | 0.513 | 135 | 0.896 | 256 | 0.719 | 4810 | 0.958 | > 2000 | 0.782 | 3700 | 0.792 | 6380 |
| KNS-42 (glioma, adherent) | 0.952 | > 2000 | 0.589 | 29.4 | 0.877 | > 20000 | 0.984 | > 2000 | 0.792 | 5510 | 0.905 | > 16000 |

Lines with a small IC50 respond at low doses; a limit (>, <) means that the fit lies beyond the doses tested. The AUC spans the tested range (256-fold, ending at the top dose) of the same fit; values near 1 show little effect. For some assays here: A top dose marked as inferred comes from the curve model; the source does not state it.
